# The other results are listed elsewhere or left out. Single values are uncertain, as repeats are few or missing.
# Legend:
# Test in all cases: cell count relative to DMSO control; melanoma cells; higher = more viable cells
# Conditions in all cases: library dose: low library concentration; 72 h
# MZ2-MEL = system: MZ2-MEL
# MeWo = system: MeWo
# RPMI7951 = system: RPMI7951
# RVH-421 = system: RVH-421
# SkMel28 = system: SkMel28
# SkMel2 = system: SkMel2
# SkMel30 = system: SkMel30
# SkMel5 = system: SkMel5
# UACC257 = system: UACC257
# UACC62 = system: UACC62
# WM115 = system: WM115
# WM1716 = system: WM1716
# WM1745 = system: WM1745
# WM3526 = system: WM3526
# WM3619 = system: WM3619
# WM451Lu = system: WM451Lu
# 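Note: cell number obtained by counting DAPI-stained nuclei in high-throughput microscope images with image analysis software, screen run in 1,536-well plates.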
SMILES,cell count (MZ2-MEL),cell count (MeWo),cell count (RPMI7951),cell count (RVH-421),cell count (SkMel28),cell count (SkMel2),cell count (SkMel30),cell count (SkMel5),cell count (UACC257),cell count (UACC62),cell count (WM115),cell count (WM1716),cell count (WM1745),cell count (WM3526),cell count (WM3619),cell count (WM451Lu)
"Cc1cc(Nc2cc(N3CCN(C)CC3)nc(Sc3ccc(NC(=O)C4CC4)cc3)n2)n[nH]1 [Tozasertib] + CCN(CC)CCCCNc1ncc2cc(-c3cc(OC)cc(OC)c3)c(NC(=O)NC(C)(C)C)nc2n1 [PD173074] (first compound 0.006 µM, partner dose 0.1 µM)",94.2%,86.9%,90.1%,93.6%,91.1%,95%,99.4%,112%,86.8%,91.4%,91.9%,93.7%,71.9%,78.2%,82.8%,95.5%
"N#CC[C@H](C1CCCC1)n1cc(-c2ncnc3[nH]ccc23)cn1 [ruxolitinib] + COc1cc(Nc2ncc(F)c(Nc3ccc4c(n3)NC(=O)C(C)(C)O4)n2)cc(OC)c1OC [Tamatinib] (first compound 1 µM, partner dose 0.4 µM)",86.3%,82.2%,95.7%,108%,91.5%,107%,93.1%,84.6%,79.6%,86.6%,88.7%,81.7%,63.6%,93.9%,87.2%,89.3%
"Cc1cc(Nc2cc(N3CCN(C)CC3)nc(Sc3ccc(NC(=O)C4CC4)cc3)n2)n[nH]1 [Tozasertib] + CN(C)S(=O)(=O)c1ccc2c(c1)/C(=C/c1cc3c([nH]1)CCCC3)C(=O)N2 [SU6656] (first compound 0.006 µM, partner dose 0.4 µM)",99.9%,93.4%,100%,101%,88.7%,97%,91%,79.4%,77%,71.9%,79.3%,102%,79.1%,74.4%,106%,91.4%
"Cc1cc(Nc2cc(N3CCN(C)CC3)nc(Sc3ccc(NC(=O)C4CC4)cc3)n2)n[nH]1 [Tozasertib] + CC1(C)NC(=O)N(c2ccc([N+](=O)[O-])c(C(F)(F)F)c2)C1=O [nilutamide] (first compound 0.006 µM, partner dose 1 µM)",99.5%,89.7%,99.9%,111%,96.3%,102%,98.9%,94.1%,98.6%,93.8%,98.8%,83.9%,72.2%,85.7%,86.3%,91.6%
"CC[C@]1(O)C[C@H]2CN(CCc3c([nH]c4ccccc34)[C@@](C(=O)OC)(c3cc4c(cc3OC)N(C=O)[C@H]3[C@@](O)(C(=O)OC)[C@H](OC(C)=O)[C@]5(CC)C=CCN6CC[C@]43[C@@H]65)C2)C1 [vincristine] + Cc1ccc(NC(=O)c2cccc(N(C)C)c2)cc1NC(=O)c1ccc(O)cc1 [ZM336372] (first compound 0.0001 µM, partner dose 2 µM)",83.2%,78.5%,51.6%,89.6%,57.7%,101%,57.6%,79.4%,25.7%,42.2%,37.8%,41.3%,76.5%,57.3%,64.7%,38.9%
"CC[C@]1(O)C[C@H]2CN(CCc3c([nH]c4ccccc34)[C@@](C(=O)OC)(c3cc4c(cc3OC)N(C=O)[C@H]3[C@@](O)(C(=O)OC)[C@H](OC(C)=O)[C@]5(CC)C=CCN6CC[C@]43[C@@H]65)C2)C1 [vincristine] + O=c1cc(-c2cccc3c2Sc2ccccc2S3)oc(N2CCOCC2)c1 [KU55933] (first compound 0.0001 µM, partner dose 1 µM)",74.4%,80.8%,39.5%,94.7%,62.7%,74.9%,53.5%,92.6%,47.1%,38.7%,45.5%,34.5%,78.5%,72.2%,53.6%,46.6%
"Cc1cc(Nc2cc(N3CCN(C)CC3)nc(Sc3ccc(NC(=O)C4CC4)cc3)n2)n[nH]1 [Tozasertib] + O=C(O)C(=O)Nc1sc2c(c1C(=O)O)CCNC2 [TCS401] (first compound 0.006 µM, partner dose 1.66667 µM)",106%,95%,100%,87.4%,95.5%,97.3%,115%,103%,92.4%,66.9%,95.1%,100%,88.9%,102%,102%,113%
"Cc1cc(Nc2cc(N3CCN(C)CC3)nc(Sc3ccc(NC(=O)C4CC4)cc3)n2)n[nH]1 [Tozasertib] + O=c1cc(-c2cccc3c2Sc2ccccc2S3)oc(N2CCOCC2)c1 [KU55933] (first compound 0.006 µM, partner dose 1 µM)",102%,85.5%,80.6%,85.1%,84.7%,98.6%,89%,107%,92.4%,90.8%,92.6%,104%,87.7%,78%,120%,89.3%
"N#CC[C@H](C1CCCC1)n1cc(-c2ncnc3[nH]ccc23)cn1 [ruxolitinib] + O=C(O)c1ccc(-c2c[nH]c3ncc(-c4ccccc4)cc23)cc1C1CCCC1 [GSK650394] (first compound 1 µM, partner dose 0.16 µM)",102%,89%,111%,79.2%,103%,111%,114%,98.9%,95.5%,120%,112%,93.4%,108%,117%,78.4%,79.6%
"CC[C@]1(O)C[C@H]2CN(CCc3c([nH]c4ccccc34)[C@@](C(=O)OC)(c3cc4c(cc3OC)N(C=O)[C@H]3[C@@](O)(C(=O)OC)[C@H](OC(C)=O)[C@]5(CC)C=CCN6CC[C@]43[C@@H]65)C2)C1 [vincristine] + CO[C@@H]1[C@H](N(C)C(=O)c2ccccc2)C[C@H]2O[C@]1(C)n1c3ccccc3c3c4c(c5c6ccccc6n2c5c31)C(=O)NC4 [Midostaurin] (first compound 0.0001 µM, partner dose 0.08 µM)",99%,88.1%,61.1%,92.2%,79.3%,90.4%,87.2%,82.1%,64.4%,74.3%,54.1%,24.5%,97.9%,76%,78.4%,81.6%
"N#CC[C@H](C1CCCC1)n1cc(-c2ncnc3[nH]ccc23)cn1 [ruxolitinib] + NC(=O)Nc1cc(-c2cccc(F)c2)sc1C(=O)N[C@H]1CCCNC1 [AZD7762] (first compound 1 µM, partner dose 0.02 µM)",114%,98.1%,81.6%,94.3%,121%,105%,133%,107%,126%,121%,113%,85.8%,102%,113%,60.3%,75.6%
"N#CC[C@H](C1CCCC1)n1cc(-c2ncnc3[nH]ccc23)cn1 [ruxolitinib] + Cc1cc(N2CCOCC2)cc2[nH]c(-c3c(NC[C@@H](O)c4cccc(Cl)c4)cc[nH]c3=O)nc12 [BMS536924] (first compound 1 µM, partner dose 0.2 µM)",106%,96.4%,121%,97.9%,118%,103%,99.8%,95.5%,80.9%,108%,112%,100%,71%,103%,85.6%,76.1%
"Cc1cc(Nc2cc(N3CCN(C)CC3)nc(Sc3ccc(NC(=O)C4CC4)cc3)n2)n[nH]1 [Tozasertib] + NC(=O)c1ccc(N(C(N)=O)c2c(F)cccc2F)nc1-c1ccc(F)cc1F [VX702] (first compound 0.006 µM, partner dose 0.4 µM)",103%,89.5%,84.5%,91.8%,79.8%,97.1%,91.3%,–,–,105%,82.6%,94.3%,80.4%,82.9%,90.4%,101%
"CC[C@]1(O)C[C@H]2CN(CCc3c([nH]c4ccccc34)[C@@](C(=O)OC)(c3cc4c(cc3OC)N(C=O)[C@H]3[C@@](O)(C(=O)OC)[C@H](OC(C)=O)[C@]5(CC)C=CCN6CC[C@]43[C@@H]65)C2)C1 [vincristine] + NCC(=O)Nc1ccc(-n2nc(C(F)(F)F)cc2-c2ccc3c(ccc4ccccc43)c2)cc1 [OSU03012] (first compound 0.0001 µM, partner dose 1 µM)",94.6%,61.9%,101%,69.8%,88.4%,70.2%,49%,82.6%,71.9%,84.1%,58.8%,0.534%,92.9%,44.1%,108%,45.7%
"CC[C@]1(O)C[C@H]2CN(CCc3c([nH]c4ccccc34)[C@@](C(=O)OC)(c3cc4c(cc3OC)N(C=O)[C@H]3[C@@](O)(C(=O)OC)[C@H](OC(C)=O)[C@]5(CC)C=CCN6CC[C@]43[C@@H]65)C2)C1 [vincristine] + Oc1nc(-c2ccc(C(F)(F)F)cc2)nc2c1CSCC2 [XAV939] (first compound 0.0001 µM, partner dose 2 µM)",97.7%,93.9%,56.1%,102%,58.7%,93.4%,49.6%,82.3%,63.4%,53.2%,60.7%,32.8%,73.7%,62.9%,63.1%,65.7%
